Out of some 190,000 compounds screened, about 270 (0.14%) were called active. Inconclusive results, whose numbers are uncertain, are shown with a selection of clear calls.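 How the source made its calls: active means GTP binding activity at least 20% away from the 100% baseline, either lowered as inhibitor or raised as activator; inconclusive means flagged as likely green fluorescent, judged across all proteins in the well; inactive means the rest.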
Each molecule was assayed against GTPase HRas (Homo sapiens) (UniProt P01112) (assay: HRas wt fluorescent GTP binding changes, either direction – biochemical, wildtype, bead-based flow cytometry, multiplex, primary screen (AID 759;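 further: 0% = unlabeled GTP competition control and 100% = no-compound control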)). Settings: GST-Ras wt beads, Bodipy-FL-GTP binding, at 10 µM, actives lie on both sides.
UniProt P01112, sequence (P01112 whole entry, looked up): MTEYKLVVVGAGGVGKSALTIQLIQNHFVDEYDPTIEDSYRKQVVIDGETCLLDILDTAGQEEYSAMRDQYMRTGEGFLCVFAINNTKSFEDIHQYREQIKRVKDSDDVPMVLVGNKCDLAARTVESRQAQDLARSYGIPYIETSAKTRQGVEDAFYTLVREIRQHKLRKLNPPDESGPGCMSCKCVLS

GTP binding activity, inactive:
C/C(=N\Nc1cc(C)nc(-c2ccccc2)n1)c1cccc([N+](=O)[O-])c1 88%
CC(=O)Nc1nc(SCC(=O)NCc2ccc(F)cc2)[nH]c(=O)c1NC(=O)c1cccs1 90%
O=S(=O)(/N=C(/Nc1ccccc1)c1ccccc1O)c1ccccc1 97%
Cc1cc(/C=c2\sc3nc4ccccc4n3c2=O)c(C)n1-c1ccc(C(=O)O)cc1 88%
C[N+]1(CC(O)COCC2COc3ccccc3O2)CCOCC1 (stereo unspecified) 97%
O=C(NC1CCCCC1)c1noc2c1CCCCC2 109%
O=[N+]([O-])c1ccccc1/C=N/Nc1nnc(-c2ccccc2)c(-c2ccccc2)n1 101%
N#Cc1cc([N+](=O)[O-])ccc1NC(=O)COC(=O)CCC1CCCCC1 86%
CN(c1ccc(OCC(=O)OCC(=O)NCc2ccco2)cc1)S(=O)(=O)c1ccc2ccccc2c1 99%
CCOC(=O)C1(CCc2ccccc2)CCN(C(=O)C(C)n2cncn2)CC1 (stereo unspecified) 99%
CCOC(=O)N1CCN(C(=O)CC(=O)Nc2ccc3nc4n(c(=O)c3c2)CCCCC4)CC1 96%
Cn1c(C(=O)OCC(=O)NCc2ccco2)cc2sccc21 99%
Cc1nn(C)cc1CN1CCCC(C(=O)c2ccc(-c3ccccc3)cc2)C1 (stereo unspecified) 96%
COc1c(Cl)cc(Cl)cc1CNCCO 98%
COc1cc(/C=C(\C#N)C(=O)NC2CCCCC2)ccc1OCc1ccc(C(=O)O)cc1 89%
Cc1cccc(NC(=O)CSc2ccc(C(N)=O)cc2[N+](=O)[O-])c1C 102%
Cc1ccc(CC(=O)Nc2cccc(C#N)c2)cc1 98%
O=c1c2c(nc3nc(NCc4cccc5ccccc45)[nH]n13)CCC2 91%
C=CCOc1ccc(C2CC(C)=NN2c2ccccc2)cc1 (stereo unspecified) 103%
COc1cccc(NC(=O)c2ccc(NC(=O)C3CC(=O)OC34CCCCC4)cc2)c1 (stereo unspecified) 85%
CC(C)c1ccc(O)c(NC(=S)NC(=O)CCc2ccccc2)c1 97%
Cc1ccc(/C=N/NC(=O)c2cc(C3CC3)nc3ccccc23)o1 97%
O=C(NC1CCNCC1)C1CC1 99%
CCOc1ccc(OCCOCCNCCOC)cc1 99%
CN1CCN(Cc2nc3ccccc3c(=O)n2Cc2nc(-c3ccccc3F)cs2)CC1 96%

GTP binding activity, inconclusive:
O=C(/C=C/c1ccc([N+](=O)[O-])cc1)NC1CC2CCC1C2 (stereo unspecified) 95%
O=C1OC(Oc2ccccc2)(c2ccccc2)c2ccccc21 (stereo unspecified) 111%
COc1ccc(N(CC(=O)Nc2ccccc2C(=O)O)S(=O)(=O)c2ccc(C)c([N+](=O)[O-])c2)cc1 91%
O=C(Oc1ccc2c(c1)O/C(=C\c1ccncc1)C2=O)c1ccccc1 94%
O=C(Cc1coc(-c2ccc(F)cc2)n1)NCc1ccccc1 105%
CC(C)CCN1CN(S(=O)(=O)c2cccs2)c2nc3ccccc3nc21 105%
COCCn1c(SCc2nc3scc(-c4ccc(Cl)cc4)c3c(=O)[nH]2)nnc1-c1cccc(C)c1 93%
COc1ccc(/C=N/NC(=O)c2c([N+](=O)[O-])c(C)nn2C)cc1 102%
CCOc1ccc(C(=O)Nc2ccc(N3CCN(S(C)(=O)=O)CC3)cc2)cc1[N+](=O)[O-] 94%
COc1cccc(OCc2nnc(SCC(=O)NCc3ccco3)n2C)c1 112%
COC(=O)CSc1ccc(C#N)c(SCC(=O)OC)c1 106%
CCOC(=O)c1c(C)[nH]c(-c2csc(C)n2)c1C 94%
O=C(CNC(=S)NC(=O)C1CCCCC1)c1ccccc1 102%
Clc1nc2sccn2c1/C=N/n1cnc2ccccc21 90%
O=C(O)C(Cc1c[nH]c2ccccc12)NS(=O)(=O)c1ccc2ccccc2c1 (stereo unspecified) 89%
O=C(NCC(c1cccnc1)N1CCOCC1)c1ccco1 (stereo unspecified) 95%
COc1cccc(=O)c2c(C)n(CC(=O)c3ccccc3)c(C)c12 92%
C(=N\N1CCN(Cc2ccccc2)CC1)/c1cccs1 97%
Cc1cccc(-n2c(C)cc(/C=N\NC(=O)c3cccs3)c2C)c1 100%
CN(C)c1nc(=S)nc(NCc2ccccc2)[nH]1 108%
COc1ccc(S(=O)(=O)CCC(=O)NCCc2ccc(C)cc2)cc1 102%
COc1ccc(Nc2nc(N)nc(CSC(=S)N3CCOCC3)n2)cc1 94%
COc1cccc(C(=O)Nc2cccc(C(=O)NC3=NN(c4c(Cl)cc(Cl)cc4Cl)C(=O)C3)c2)c1 86%
CC(=O)Cc1nsc(NC(=O)c2ccco2)n1 106%
Cc1cccc(OCC(O)CN2C(C)(C)CC(O)CC2(C)C)c1 (stereo unspecified) 104%
O=C1CNC(=O)/C1=C/c1ccc(O)cc1 104%
S=C(NCc1cccs1)Nc1ccc(Cl)cc1 92%
CC(C)OC(=O)CSc1n[nH]c(-c2cccnc2)n1 108%
O=C(O)C1C2C=CC(O2)C1C(=O)Nc1ccccc1C(F)(F)F (stereo unspecified) 103%
O=C1Nc2cc(Cl)c(Cl)cc2N(O)N1c1ccccc1 95%
Cc1cccc(C(=O)NC(=S)NNC(=O)c2ccc(Cl)cc2)c1 97%
Cc1ccc(C(=O)CC(C(=O)O)P(=O)(c2ccccc2)c2ccccc2)cc1 (stereo unspecified) 94%
Cc1ccc(NC(=O)CSc2nnc(-c3ccncc3)o2)cc1 105%
CCC(CC)C(=O)NCCN1CCN(C(=O)C(CC)CC)CC1 108%
CC1CCCC(NC(=O)COC(=O)Cc2ccsc2)C1C (stereo unspecified) 99%
CCN1CCN(C(=O)c2c(-c3c(F)cccc3Cl)noc2C)CC1 105%
CC(=O)Nc1cccc(NC(=O)c2ccc([N+](=O)[O-])cc2Cl)c1 105%
CCCn1c(N)c(C(=O)NS(=O)(=O)c2ccc(C)cc2)c(=O)n(C)c1=O 87%
CCOc1ccccc1-c1c2cc(O)c(=O)cc-2oc2cc(O)c(O)cc12 234%
O=C(O)C1C2C=CC(C2)C1C(=O)Nc1ccc(C(=O)N2CCCCC2)cc1 (stereo unspecified) 107%
Nc1ncc(Br)cc1S(=O)(=O)NCCC(=O)Nc1cccc(Cl)c1 107%
Cc1c(NC(=O)/C(C#N)=C/c2ccc(-c3cc(Cl)ccc3Cl)o2)c(=O)n(-c2ccccc2)n1C 77%
O=C1C2C3C=CC(C3)C2C(=O)N1c1cccnc1 (stereo unspecified) 92%
COC(=O)C1=C(C)N(c2cc(C)cc(C)c2)/C(=C/c2ccco2)C1=O 94%
Cn1c(=O)c2ncn(CC(=O)NCCOc3ccc(C(C)(C)C)cc3)c2n(C)c1=O 104%
CC(C)Oc1cccc(C(=O)NC(=S)Nc2ccc3c4c(cccc24)CC3)c1 90%
CC(C)N1C(=O)/C(=C\c2nc3ccccc3c(=O)[nH]2)c2ccccc21 96%
CC(OC(=O)CCC(=O)c1cccs1)C(=O)Nc1ccccc1[N+](=O)[O-] (stereo unspecified) 90%
CCCCN(C)CCOc1ccccc1OCC 105%
CCC(C)(C)n1nnnc1CN1CCc2ccccc21 93%
O=C(COc1ccccc1)Nc1ccc(N2CCN(C(=O)c3cccs3)CC2)cc1 93%
CCOC(=O)c1ccc2c(c1)[n+](CC)c(C)n2-c1ccccc1 96%
O=c1cc(-c2ccc(O)c(-c3c(O)cc(O)c4c(=O)cc(-c5ccc(O)cc5)oc34)c2)oc2cc(O)cc(O)c12 89%
CC(C)N(C(=O)CSc1nnc(CSc2ncccn2)n1C)C(C)C 101%
COCCN(C(=S)Nc1ccc(C(C)C)cc1)C(C)c1cccs1 (stereo unspecified) 91%
CCOC(=O)C1=C(CSc2nc(C)ccc2C#N)OC(N)=C(C#N)C1c1cccc(OC)c1OC (stereo unspecified) 101%
CC(C)CNC(=O)c1nc(-c2ccccc2)n(-c2ccccc2)n1 101%
Cc1cccc(-n2c(C)nc3cc(C(=O)NCc4ccc5c(c4)OCO5)ccc32)c1 88%
CCN1CCN(c2ncc(C(=O)Nc3c(F)cc(F)cc3Br)c3ccccc23)CC1 101%
Nc1nc(-c2ccc(Cl)cc2)nn1C(=O)c1cccnc1 103%
Cc1ccccc1/C=C1\SC(=S)N(/N=C/c2cc([N+](=O)[O-])ccc2O)C1=O 80%
O=C1Nc2ccc(NS(=O)(=O)c3cccs3)c3cccc1c23 95%

GTP binding activity, active:
Nc1c(S(=O)(=O)c2cccc(Cl)c2)c2nc3ccccc3nc2n1/N=C/c1ccc(O)c(O)c1 63%
Cc1cc(C)n2nc(SCCOc3ccc(F)cc3)nc2n1 73%
O=C(O)C1CCCN1C(=O)OCc1ccccc1 (stereo unspecified) 121% [activator]
COc1ccc(OC)c(S(=O)(=O)Nc2ccc(O)c(Sc3ncn[nH]3)c2)c1 39%

Source: PubChem BioAssay AID759 (NMMLSC, 2007)
